Hit rate of the full screen: of about 310,000 compounds, about 14,000 (4.5%) showed an effect of 50% or more. Effects have a minus sign here. The list shows a part of the results.
biological target: human ether-à-go-go-related gene (hERG) potassium channel (human, UniProt Q12809); assay: primary screen, population patch clamp on CHO cells stably expressing hERG
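Note: peak tail current of the secondary pulse compared with the same well before compound.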

Sequence of human ether-à-go-go-related gene (hERG) potassium channel (Q12809 whole entry, looked up): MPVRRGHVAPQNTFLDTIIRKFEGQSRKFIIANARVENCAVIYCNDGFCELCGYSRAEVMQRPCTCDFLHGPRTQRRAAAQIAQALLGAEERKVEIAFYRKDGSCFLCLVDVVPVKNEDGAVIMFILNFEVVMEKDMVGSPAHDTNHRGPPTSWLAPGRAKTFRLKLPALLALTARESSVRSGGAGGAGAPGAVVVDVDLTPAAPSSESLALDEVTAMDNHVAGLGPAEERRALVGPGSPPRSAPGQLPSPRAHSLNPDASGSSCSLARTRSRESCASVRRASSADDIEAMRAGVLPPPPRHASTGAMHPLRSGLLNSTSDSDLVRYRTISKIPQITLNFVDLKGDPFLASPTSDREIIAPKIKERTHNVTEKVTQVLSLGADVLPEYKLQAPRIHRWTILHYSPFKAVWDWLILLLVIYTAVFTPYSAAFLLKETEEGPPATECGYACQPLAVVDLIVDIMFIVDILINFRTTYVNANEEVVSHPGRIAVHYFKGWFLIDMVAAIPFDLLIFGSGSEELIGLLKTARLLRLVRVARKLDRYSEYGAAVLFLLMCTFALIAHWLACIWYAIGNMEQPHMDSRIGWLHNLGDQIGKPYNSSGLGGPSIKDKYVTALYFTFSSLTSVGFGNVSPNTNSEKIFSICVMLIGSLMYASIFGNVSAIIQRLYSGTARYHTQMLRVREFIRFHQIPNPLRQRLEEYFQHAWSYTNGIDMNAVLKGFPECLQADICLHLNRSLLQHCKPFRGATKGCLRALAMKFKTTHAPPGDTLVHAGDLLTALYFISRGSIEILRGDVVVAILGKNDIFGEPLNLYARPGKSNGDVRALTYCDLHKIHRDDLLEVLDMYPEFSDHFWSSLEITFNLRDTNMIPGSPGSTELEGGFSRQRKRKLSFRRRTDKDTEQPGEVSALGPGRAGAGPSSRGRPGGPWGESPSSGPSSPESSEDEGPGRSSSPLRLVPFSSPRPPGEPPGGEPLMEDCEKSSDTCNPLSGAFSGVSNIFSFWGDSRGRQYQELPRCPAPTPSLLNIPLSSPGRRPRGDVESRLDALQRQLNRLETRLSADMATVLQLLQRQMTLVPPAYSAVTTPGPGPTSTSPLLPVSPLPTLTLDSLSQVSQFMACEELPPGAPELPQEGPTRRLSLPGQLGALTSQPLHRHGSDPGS

Compound | hERG current change (%, negative = inhibition) at 10uM [%]
COc1cc(C(=O)OCC(=O)N2CCCCC2C)ccc1OCc1c(C)noc1C (stereo not drawn) | 6.3
CC1Cc2ccccc2N1C(=O)CN1CCc2ccccc2C1 (stereo not drawn) | -24.6
COc1cccc(NC(=O)C(Sc2nnc3ccccn23)c2ccccc2)c1 (stereo not drawn) | 6.68
CC1(C)CC(=O)C(C=Nc2ccc3cn[nH]c3c2)=C(O)C1 | -40.5
CCCc1[nH]nc2c1C(c1ccc(OC)cc1OC)C(C#N)=C(N)O2 (stereo not drawn) | -1.17
Cc1nc(N)sc1Cc1ccc2c(c1)OCO2 | 7.61
CCOc1cc(/C=N/O)ccc1OS(=O)(=O)c1ccc(C)cc1 | -5.21
CCCCCCCNC(=O)CN1C(=O)CSc2ccc(S(=O)(=O)N3CCOCC3)cc21 | -17.7
O=C(CC(=O)Nc1ccccc1)Nc1ccccc1 | 14.8
CCOc1ccc(NS(=O)(=O)c2ccc(C(=O)NCCCN3CCOCC3)cc2)cc1 | 18.6
Cc1ccc(Cl)cc1N1CCN(C(=O)Cc2ccc(-n3c(=O)[nH]c4ccsc4c3=O)cc2)CC1 | -4.4
C/C(N)=C(/C#N)C(=O)COC(=O)c1cc(-c2cccc3ccccc23)nc2ccccc12 | 3.67
Cc1ccc(C=Nc2ccccc2C(N)=O)cc1 | 12.1
Cc1cccc(-c2oc3ccc(-c4ccc5c(c4)OCO5)cc3c2C#Cc2cncn2C)c1 | 20.4
CCOC(=O)N1CCN(C(=S)NC(=O)c2ccc(Br)cc2)CC1 | -20.7
CCC1(C(=O)c2ccc(C)cc2)C2c3ccccc3OC(=O)C21C(=O)O (stereo not drawn) | 39.9
CCn1ncc(C(=O)Nc2ccc([N+](=O)[O-])cc2OC)c1C | 2.34
O=C1CC(Sc2ncccn2)C(=O)N1c1ccccc1C(F)(F)F (stereo not drawn) | 10.1
CCOCCCNC(=O)CNC(=S)N(Cc1ccc(C)cc1)Cc1ccco1 | -23

Compound | hERG current change (%, negative = inhibition) at 10uM [%]
O=C(NNc1ccccc1F)C1CCC1 | 14.5
Cc1nc(=O)c(-c2ccccc2)c(C)n1-c1ccc(S(N)(=O)=O)cc1 | -15.8
CN(C)CCCN(Cc1ccccc1)C(=S)Nc1ccc(SC(F)F)cc1 | -75.1
COc1ccc(N2CCN(C(=O)C3Cc4ccccc4CN3C(=O)c3ccccc3)CC2)cc1 (stereo not drawn) | -21.4
CCOC(=O)N1CCN(C(=O)c2ccc(OC)c(OC)c2)CC1 | 18.5
O=C(c1cnccn1)N(c1ccccc1)C1(C(=O)NC2CCCCC2)CCCCC1 | 3.06
COc1ccc(N2CCN(C(=O)CSc3nnc(NC(=O)C4CC4)s3)CC2)cc1 | 4.25
CCCCCCC(=O)N1CCCC(c2nc(-c3cccc(OC)c3)no2)C1 (stereo not drawn) | -41.3
CC(Cn1cncn1)C(=O)N1CCN(S(=O)(=O)c2ccc(Cl)cc2)CC1 (stereo not drawn) | 12.9
O=C(NC1CCCCC1)C(c1ccncc1)N(C(=O)c1csnn1)c1ccccc1F (stereo not drawn) | -9.12
COc1ccc(NS(=O)(=O)c2cn(C)cn2)cc1 | 11.9
CSCC[C@H](NC(=O)N1CCn2c1nc1ccccc12)C(=O)NCc1ccco1 | -19.1
CCN1CCN(c2ccc(N)cc2)CC1 | 46.4
COc1ccc2c(c1)c(C(=O)N/N=C/c1cccc(Br)c1)c(C)n2C | -15.9
CCC(CC)NC(=O)COc1ccc(OC)cc1C=O | 22.8
CCc1ccc(NC(=O)Nn2cnnc2)cc1 | 23.7
CC(=O)c1ccc(NC(=O)CCCN2C(=O)C(c3ccccc3)Oc3cccnc32)cc1 (stereo not drawn) | -30.7
Cn1c(=O)[nH]c(=O)c2c1nc(Br)n2CCCO | 6.39
O=C(/C=C/c1ccc(F)cc1)N1CCN(c2ncccn2)CC1 | 12.1

Compound | hERG current change (%, negative = inhibition) at 10uM [%]
CN1CCN(C(=S)c2cn(CCOc3ccccc3)c3ccccc23)CC1 | -11.6
CCN(CC)S(=O)(=O)c1cccc(NC(=O)COC(=O)c2n[nH]c(=O)c3ccccc23)c1 | -2.07
COC(=O)C1=NNC(C(=O)c2ccco2)C1c1ccccc1 (stereo not drawn) | 1.6
COc1ccc(CC(=O)N(C)CC(=O)Nc2ccccc2SC)cc1 | 8.56
O=C1CN=C(c2cccc(Br)c2)c2cc(Br)ccc2N1 | -44.5
Cc1ccccc1NC(=O)C1c2ccccc2Oc2ccccc21 | 29
Cc1cc(NC(=O)/C(C#N)=C/c2ccco2)n(-c2ccccc2)n1 | -3.27
CCN(c1ccc(NC(=O)CN2C(=O)NC3(CCOc4ccccc43)C2=O)cc1)C(C)C (stereo not drawn) | -6.12
C=CCN(CC=C)C(=O)Cn1cnc([N+](=O)[O-])n1 | -0.773
CN(c1ncnc(N)c1[N+](=O)[O-])C1CCCCC1 | -3.82
O=C(NC(Cc1ccccc1)C(=O)O)c1ccccc1 (stereo not drawn) | 8.76
Cc1ccnc(SC2CC(=O)N(c3ccc([N+](=O)[O-])cc3)C2=O)n1 (stereo not drawn) | -26.8
Cc1ccn2c(=O)nc(SCC(=O)Nc3ccc4c(c3)OCO4)nc2c1 | 0.0348
CCOc1ccc(CN(C)C(=O)c2ccc3ccccc3n2)cc1 | -18.2
COCc1cc(N2CCOCC2)nc(SCc2ccc(Cl)cc2)n1 | -11.7
Cn1c(SCC(=O)Nc2ccc3c(c2)OCCO3)nnc1C(F)(F)F | 7.6
CCCC(=Nc1ccccc1)C1=C(O)C(C(=O)OC)C(C)(C)CC1=O (stereo not drawn) | -3.62
CC1(C)C2CCC1(CS(=O)(=O)N1CCN(c3ccc(F)cc3)CC1)C(=O)C2 (stereo not drawn) | 8.44
Nc1cccc(C(=O)Nc2ccc3nc(-c4cccnc4)[nH]c3c2)c1 | -4.09

— PMC4336329 (PLoS ONE, 2015)
